Source: PubChem BioAssay AID360 (National Center for Advancing Translational Sciences (NCATS), 2006)
The whole screen tested about 48,000 compounds, of which about 550 (1.1%) were called active. About 4% were inconclusive and are not listed. No stated cut-off is given here; in the data, active means potency below about 15 µM; inconclusive means mostly about 16 µM to 33 µM; inactive means weaker than that. The list shows a part of the results.

These compounds were tested against Lysosomal acid glucosylceramidase (Homo sapiens) (UniProt P04062) (assay: Glucocerebrosidase). Settings: purified enzyme, resorufin glucoside fluorescence (screen aimed at inhibitors), 20 min.
How it was run: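 Wild-type enzyme at 0.2 nM final in 50mM citric acid/KH2PO4, 10mM sodium taurocholate, 0.01% tween-20, pH 5.9, with resorufin beta-D-glucopyranoside at 30 uM final. Compounds titrated, 20 min at RT, red fluorescence read; AC50 from titration.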
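Further: the screen sought inhibitors.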
Potency means the concentration at half of the fitted maximal effect.

Sequence of UniProt P04062 (P04062 whole entry, looked up): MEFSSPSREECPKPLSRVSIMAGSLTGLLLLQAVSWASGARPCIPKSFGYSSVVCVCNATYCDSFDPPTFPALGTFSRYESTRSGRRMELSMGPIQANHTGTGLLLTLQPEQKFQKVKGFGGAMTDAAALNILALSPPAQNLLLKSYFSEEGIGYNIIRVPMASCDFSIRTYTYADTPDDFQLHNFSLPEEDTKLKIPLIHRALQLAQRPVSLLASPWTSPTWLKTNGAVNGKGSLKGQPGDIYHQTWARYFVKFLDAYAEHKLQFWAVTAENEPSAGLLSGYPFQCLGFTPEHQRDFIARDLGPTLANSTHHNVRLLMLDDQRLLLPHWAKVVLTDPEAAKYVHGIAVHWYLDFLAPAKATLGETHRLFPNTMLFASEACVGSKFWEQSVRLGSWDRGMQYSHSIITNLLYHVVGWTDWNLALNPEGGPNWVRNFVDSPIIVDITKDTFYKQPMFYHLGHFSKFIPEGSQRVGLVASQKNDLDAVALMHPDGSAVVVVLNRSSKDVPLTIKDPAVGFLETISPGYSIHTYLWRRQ

Compound | Potency
CC1CCN(c2nc3c(c(=O)[nH]c(=O)n3C)n2CCSc2nc3ccccc3o2)CC1 | inactive: > 76.9 µM
CCOC(=O)c1ccc(NC(=O)Nc2ccc3c(c2)OCCO3)cc1 | inactive: > 76.9 µM
COC(=O)CSc1nnc([C@H](Cc2ccccc2)NC(=O)OC(C)(C)C)o1 | inactive: > 76.9 µM
Nc1cc(=O)[nH]c(SCCNS(=O)(=O)c2ccccc2)n1 | inactive: > 76.9 µM
Cc1ccc(C(C(=O)NC2CCCC2)N(Cc2ccc(F)cc2)C(=O)c2csnn2)o1 (stereo not drawn) | inactive: > 76.9 µM
Nc1cccc(C(=O)Nc2ccco2)c1 | inactive: > 76.9 µM
Cc1cc(C(=O)COC(=O)c2cccs2)c(C)n1-c1c(C)n(C)n(-c2ccccc2)c1=O | inactive: > 76.9 µM
O=C(NCCc1c[nH]c2ccccc12)c1c(Cl)nc2sccn12 | inactive: > 76.9 µM
Cc1c(-n2c(SCC(=O)O)nnc2-c2ccccc2Cl)c(=O)n(-c2ccccc2)n1C | inactive: > 76.9 µM
Clc1ccc(COn2nnc3ccccc32)c(Cl)c1 | inactive: > 76.9 µM
CC(C)(C)C(=O)/C=c1\[nH]c(=O)/c(=C\c2ccc(C#N)cc2)s1 | inactive: > 76.9 µM
O=C(Nc1ccc(N2CCOCC2)cc1)Nc1cnsn1 | inactive: > 76.9 µM
CCOc1cccc(-c2nn3c(-c4cc(C)[nH]n4)nnc3s2)c1 | inactive: > 76.9 µM
O=C(Nc1ccccc1C(=O)N1CCOCC1)C1CCC(=O)N1C1CCCC1 (stereo not drawn) | inactive: > 76.9 µM
CCCN1CC=C2C(C#N)=C(N)C(C#N)(C#N)C(c3cc(OC)ccc3OC)C2C1 (stereo not drawn) | inactive: > 76.9 µM
O=C(NCc1ccco1)c1cccn2c(=O)c3cc(Br)ccc3nc12 | inactive: > 76.9 µM
Fc1cccc2sc(Nc3nnc(-c4ccco4)o3)nc12 | inactive: > 76.9 µM
N#Cc1c(NC(=O)CSc2nc3ccccc3c(=O)n2Cc2ccco2)sc2c1CCCC2 | inactive: > 76.9 µM
CC(C(=O)O)c1cccc(C(=O)c2ccccc2)c1 (stereo not drawn) | inactive: > 76.9 µM
O=C(C1CCCN(Cc2cccs2)C1)N1CCCCCC1 (stereo not drawn) | inactive: > 76.9 µM
O=C(COC(=O)C1CC1)Nc1ccc(Oc2ccccc2)cc1 | inactive: > 76.9 µM
Cc1oc2cc(O)cc(O)c2c(=O)c1-c1ccc2c(c1)OCCCO2 | inactive: > 76.9 µM
CCOc1ccc(N(CC(=O)NCc2ccc(OC)cc2)S(=O)(=O)c2c(C)noc2C)cc1 | inactive: > 76.9 µM
COC(=O)c1c(N)n(-c2ccc(N3CCOCC3)cc2)c2nc3ccccc3nc12 | inactive: > 76.9 µM

Compound | Potency
CCCCN(c1ccccc1)S(=O)(=O)c1ccc2c(c1)CCN2C(=O)CCC(=O)O | inactive: > 76.9 µM
Cc1cc2oc(=O)cc(C)c2c(=O)o1 | inactive: > 76.9 µM
CCOc1ccccc1C(=O)NCCCn1ccnc1 | inactive: > 76.9 µM
COc1cccc(C(=O)NC2CC3CCCC(C2)N3CC(=O)Nc2ccccc2)c1 (stereo not drawn) | inactive: > 76.9 µM
CN(C)c1oc(-c2ccccc2Cl)nc1C#N | inactive: > 76.9 µM
COc1ccc(NC(=O)c2cc3n(n2)C(C(F)(F)F)CC(c2ccco2)N3)cc1 (stereo not drawn) | inactive: > 76.9 µM
COc1ccc(OC)c(CNC(=O)CCNC(=O)Cn2ccc3ccccc3c2=O)c1 | inactive: > 76.9 µM
CC(=O)Oc1ccc(NC(=O)CSc2ccccc2)cc1 | inactive: > 76.9 µM
CC1CCCC(NC(=O)COC(=O)c2ccc(S(=O)(=O)N3CCOCC3)cc2)C1C (stereo not drawn) | inactive: > 76.9 µM
CCOc1ccccc1NS(=O)(=O)c1cccs1 | inactive: > 76.9 µM
COc1ccc(CN(C(=O)CNC(=O)c2ccco2)C(C(=O)NC2CCCC2)c2ccco2)cc1 (stereo not drawn) | inactive: > 76.9 µM
O=C(CCC1CCCCC1)Nc1c2c(nn1-c1ccc(F)cc1)CS(=O)(=O)C2 | inactive: > 76.9 µM
O=C(COC(=O)c1cccs1)NCc1ccco1 | inactive: > 76.9 µM
O=C(c1ccccc1)N1CCN(C2CCCCCC2)CC1 | inactive: > 76.9 µM
Cc1n[nH]c(C)c1S(=O)(=O)N1CCCCCC1 | inactive: > 76.9 µM
COc1cccc(C(=O)Nc2ccc(NC(=O)C(C)C)nc2)c1 | inactive: > 76.9 µM
Cc1nc2ncnn2c(N2CCC(C(=O)NCC3CCCO3)CC2)c1Cc1ccccc1 (stereo not drawn) | inactive: > 76.9 µM
Cn1nnnc1SCC(=O)c1cccs1 | inactive: > 76.9 µM
CCN(CC)CCOC(=O)c1cccc(Cl)c1 | inactive: > 76.9 µM
O=C(Nc1nc2ccccc2s1)C1CCCO1 (stereo not drawn) | inactive: > 76.9 µM
O=C(NCCCNCc1ccccc1)c1ccncc1 | inactive: > 76.9 µM
CCN1CCN(C(=O)c2ccccc2N(Cc2ccccc2)S(C)(=O)=O)CC1 | inactive: > 76.9 µM
COc1cc(OC)nc(NC(=O)CS(=O)(=O)c2ccccc2)n1 | inactive: > 76.9 µM
CC(CN1CCOCC1)OC(=O)c1ccccc1Br (stereo not drawn) | inactive: > 76.9 µM

Compound | Potency
Cc1cc(OCC(=O)Nc2ccc(S(=O)(=O)N3CCN(C)CC3)cc2)cc(C)c1Cl | inactive
c1cc2c(cc1Oc1nc(N3CCOCC3)nc(N3CCOCC3)n1)OCO2 | inactive: > 76.9 µM
COc1ccccc1NC(=O)CSCC(N)=O | inactive: > 76.9 µM
O=C(CCC(=O)c1ccc(F)cc1)OC1CCOC1=O (stereo not drawn) | inactive: > 76.9 µM
COCc1cc(C)nc(N2CCc3ccccc32)c1C#N | inactive: > 76.9 µM
CCOC(=O)CC1=CSC2=NS(=O)(=O)CCN12 | inactive: > 76.9 µM
CCOc1ccc(OCc2ccc(C(=O)NCC3CCCO3)o2)cc1 (stereo not drawn) | inactive: > 76.9 µM
COCCn1nnnc1C(C(C)C)N1CCOCC1 (stereo not drawn) | inactive: > 76.9 µM
NC(=O)CC(O)c1cccc(Cl)c1 (stereo not drawn) | inactive: > 76.9 µM
COc1ccc(-c2noc(C3CCCN(C(=O)c4cccs4)C3)n2)cc1 (stereo not drawn) | inactive: > 76.9 µM
CCn1c(=N)n(CCO)c2ccccc21 | inactive: > 76.9 µM
CCN(CC(=O)Nc1ccc2c(c1)OCCO2)Cc1cc(=O)oc2cc(C)c(C)cc12 | inactive: > 76.9 µM
COc1cccc(CC(NC(C)=O)C(=O)NC2CCN(c3c4c(nc5ncnn35)CCC4)CC2)c1 (stereo not drawn) | inactive: > 76.9 µM
CCCn1c(=O)c(C(=O)Nc2c(C)n(C)n(-c3ccccc3)c2=O)c(O)c2ccccc21 | inactive: > 76.9 µM
CC1CCC2C(C1)c1sc(=O)[nH]c1SC2(C)C (stereo not drawn) | inactive: > 76.9 µM
Cc1ccc2cccc(Oc3nnnn3-c3ccccc3)c2n1 | inactive: > 76.9 µM
CCn1c(=O)cc(OCC(=O)O)c2ccccc21 | inactive: > 76.9 µM
COc1ccc(CCNC(=O)c2cnn3cccnc23)cc1OC | inactive: > 76.9 µM
O=C(NCc1ccco1)c1cc2n(n1)C(C(F)(F)F)CC(c1ccc(Cl)c(Cl)c1)N2 (stereo not drawn) | inactive: > 76.9 µM
O=C(NCCCn1ccnc1)c1ccncc1 | inactive: > 76.9 µM
Cc1cccc2c(=O)oc(-c3ccc4c(c3)C(=O)N(CC3CCCO3)C4=O)nc12 (stereo not drawn) | inactive: > 76.9 µM
CCOc1ccccc1Oc1cn[nH]c1-c1ccc(OC)cc1O | inactive: > 76.9 µM
CCCC(=O)c1ccc(N2CCN(S(=O)(=O)c3ccc(C)cc3)CC2)c(F)c1 | inactive: > 76.9 µM
Cc1cnn(-c2cc(Oc3ccccc3)ncn2)c1 | inactive: > 76.9 µM

Compound | Potency
Cc1cc2n(n1)C(c1sccc1C)Nc1ccccc1-2 (stereo not drawn) | inactive: > 76.9 µM
O=C(O)CCC1=C2c3ccccc3CCN2C(=O)CC1 | inactive: > 76.9 µM
CSc1ccccc1NC(=O)Nc1ccccc1 | inactive: > 76.9 µM
COCc1nnc(N)s1 | inactive: > 76.9 µM
CCOC(=O)N1CCC(N2Cc3cccc(C(=O)N4CC(C)CC(C)C4)c3C2=O)CC1 (stereo not drawn) | inactive: > 76.9 µM
COc1ccc(N(CC(=O)Nc2ccc(C)c(C)c2)S(=O)(=O)c2c(C)n[nH]c2C)cc1 | active: 15.2 µM
CCOC(=O)Cc1csc(SCn2nnc3ccccc3c2=O)n1 | inactive: > 76.9 µM
C(/CCc1ccccc1)=N\n1cnnc1 | inactive: > 76.9 µM
CCOC(=O)c1cnc(SCC(=O)Nc2ccc(NC(C)=O)c(OC)c2)nc1N | inactive: > 76.9 µM
CC(=O)c1cccc(NC(=O)C2CCN(S(=O)(=O)c3ccc(C)cc3)CC2)c1 | inactive: > 76.9 µM
CC1(C)Cc2nc3oc4c(NCc5ccccc5)ncnc4c3cc2CO1 | inactive: > 15.4 µM
CC(=O)c1cccc(NC(=O)CN2C(=O)NC3(CCCCCCC3)C2=O)c1 | inactive: > 76.9 µM
COc1ccc(NC(=O)NCc2ccccn2)cc1OC | inactive: > 76.9 µM
CCCN(CCC)CCNC(=O)c1cc2c(C)nc3ccccc3c2o1 | inactive: > 76.9 µM
Cc1ccccc1Cn1nnc(-c2cccc(C(=O)O)c2)n1 | inactive: > 76.9 µM
CCN1CCN(C(c2cc3cc4c(cc3[nH]c2=O)OCO4)c2nnnn2C(C)(C)CC)CC1 (stereo not drawn) | inactive: > 76.9 µM
CCCCOc1ccc(-c2nnn(CC(=O)Nc3ncc(CC(=O)OCC)s3)n2)cc1 | inactive: > 76.9 µM
CCOC(=O)C1=C(N)Oc2cc(C)[nH]c(=O)c2C1c1ccncc1 (stereo not drawn) | inactive: > 76.9 µM
O=S(=O)(O)CCN1CCOCC1 | inactive: > 76.9 µM
Cc1nc(=O)c(-c2ccccc2)c(C)n1Cc1ccccc1 | inactive: > 76.9 µM
CCOc1ccc(Oc2nc(Nc3ccc(C)cc3)nc(N(C)C)n2)nn1 | inactive: > 76.9 µM
